Reference: the supplement of paper PMC3724861
This is one part of the list.

System: T1, Caupolican (Caup) homeodomain DNA-binding domain
T1 sequence: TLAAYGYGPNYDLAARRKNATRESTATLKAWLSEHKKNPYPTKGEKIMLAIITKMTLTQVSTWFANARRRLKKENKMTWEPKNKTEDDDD
Test: PBM E-score (8-mer, recovered from the published 9-mer minima) (E-score (dimensionless, -0.5 to 0.5)); Drosophila protein; higher = stronger relative binding preference, active = 0.31 or more
Summary of the method: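 An enrichment score, with higher meaning stronger, expresses relative binding preference for each short DNA word. The protein used was Caup's homeodomain DNA-binding domain (residues 214-303), produced by in vitro transcription and translation and tested at 100 nM on custom-designed protein binding microarrays. The 8-mer values were recovered from published 9-mer scores, each equal to the lower of its two constituent 8-mer scores.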

PBM E-score, active:
AACGACAT 0.358, ACATGTTC 0.455

PBM E-score, ≥ 0.0817:
AGGGTTTA

PBM E-score, ≥ 0.286:
ATGTGATA

PBM E-score, ≥ 0.103:
CGTGCTCA

PBM E-score, ≥ 0.0954:
ACTAGCCT

PBM E-score, ≥ 0.104:
AACCTGGT

PBM E-score, ≥ 0.107:
TCAGCACA

PBM E-score, ≥ 0.116:
TGCAGACA

PBM E-score, inactive:
GAAGTAAA 0.1, AATGCCTA -0.0311, CGACGGCG -0.248, CGCCAATA -0.00227, ACTTACCT 0.0223, CTTTCAGA -0.00514, AAGGCTGC -0.174, GTCCAAAA 0.0967, AATCGTGC 0.105, CAACGAGC 0.0301, AAAAAGTC 0.0371, CTGAACCA 0.0748, TGAATCCA 0.0558, CTAGTCGA 0.0588, GACCATGA 0.00617, CCTGCACC -0.208, GAAGTATA 0.0466, GAGCATGA 0.0786, GCGTTCTA 0.00468, AAAGATGG 0.00926, CATTATCC 0.0994, CACGGTAC 0.1, CCAGAACA 0.218, AAAACTAG 0.0928, GCAAAGCC -0.295, ATCGTTTC 0.057, GAGGAGCA -0.177, ACTAAGTG 0.0303, TCTTGACA 0.202, CGGTCTAA -0.0391, CGGGCGTA -0.248, CAGCACCA -0.00464, TAGGCTCA -0.0966, CGGAGCGC -0.256, GTTCTGAA 0.167, ATTGGTGC -0.0296, GCGGCGCA -0.136, CTATACAA 0.249, TAATAATA 0.254, CGATGTTC 0.249, GGTCCGGA -0.114, GGCAGCAC -0.168, CTTGGAAC 0.0312, CACAACTG 0.124, AAATAGCC -0.0559, CAGATCCG -0.0762, GGCTAGGA -0.114, GTTCGGAA -0.00684, ACGGATGA 0.0197, ATCCAGAT -0.0852, ACGTTAGT 0.0169, CCCCTTCA -0.232, CTCCATGC -0.107, AATCCGCC -0.182, AAATGCTT 0.0672, CCGATCGG -0.148, ACCTTCGT -0.0522, CTCTTTCA -0.0825, CGTCAGAA 0.0382, GAGTCGGC -0.139, AGGGTGTG -0.0575, GGCAGACC -0.232, GCGTACCA -0.00399, AGTGGCGC -0.182, ACCAGGAA 0.0235, ACACCCCT 0.0587, CCCGCCCA -0.17, ACCCCGCC -0.193, ACCAACAG -0.0273, CTTTGTCC 0.0364, CAGCTCAC -0.0606, CAATCTGA 0.107, AATTACGT 0.122, AATTTGGC -0.122, ACGAGCGC -0.102, GAACGCCC -0.197, ACTGGAAG -0.124, GCCTAAGC -0.175, ATCCCCCA -0.217, AAATCTTG 0.169, TAGGACTA 0.0296, CAGCTCTC -0.131, GCATTACC -0.0431, CAGCAGTA 0.00946, GACCGTAA -0.0601, AGACGGAC -0.0361, AAGACGGG -0.184, GGCCGGAA -0.282, TAGCATAA 0.0882, CACAATAG 0.119, CAAACGTG 0.121, AACGTCGA 0.0619, GGCGCAGA -0.143, CTACAACC 0.281, ACATATGG 0.223, CTCGCTTC -0.161, ACGGTAGC -0.044, ACAATAGA 0.134, GCCAGTAA -0.116, ATTGGGGG -0.246, AGCCGTAG -0.0734, AAGTGCGG -0.101, CCATTGTC 0.0627, AAACATAG 0.267, ACTTCTAG -0.0699, GGCCGGCA -0.241, TGACCACA 0.0414, CGATAGAG -0.0723, CGCACTCA -0.095, ATTCCAAA 0.0779, GATGCCAA -0.0306, CCACGACG -0.142, TAATAGGA 0.0689, GCGTACGA -0.0497, ACTTTATG 0.0771, CGTCTAGA -0.119, CTCCCACC -0.196, GAGGCCGA -0.147, CGTCAGGC -0.146, CCTATCGA 0.0985, AATTGTGC 0.0366, CGGCCGCC -0.254, ATATCTAG 0.0351, CTTCGTTA -0.0637, CAGGTTAG -0.0352, ATAAGTAT 0.0762, AGACTCAC 0.0308, CCGCTCCC -0.313, ATTGAGGG -0.114, TCTTTAAA -0.0311, GTAGCGAA 0.0736, CAATTATC 0.129, CAGCGCCA -0.191, CGACACCA 0.0948
